Test results: US10299477B2 (priority 2015, dated 2019)

What was measured:
Type in all cases: in vivo
Botrytis cinerea = test: Test Example B: Gray mold on tomato; conditions: for Test B control value (gray mold on tomato): preventive, control value class; for Test B (control value class, gray mold on tomato): in vivo
Source text: [Test Example B] Gray Mold on Tomato
Seeds of a test plant (tomato variety: Oogata Fukuju) were planted followed by cultivating until three to five first leaves (true leaves) appeared.

[1] = system: Blumeria graminis f sp. hordei; test: Test Example D: Powdery mildew on barley; conditions: for Test D control value (powdery mildew on barley): preventive, control value class; for Test D (control value class, powdery mildew on barley): in vivo
Source text: [Test Example D] Powdery Mildew on Barley
After the sprayed dilutions were dried, conidia of Blumeria graminis f sp. hordei were inoculated to the plants by shaking off.

Plasmopara viticola = test: Test Example G: Downy mildew on vine; conditions: for Test G control value: 250 ppm sprayed before inoculation; for Test G control value (downy mildew on vine): 250 ppm spray (2.5 ml/pot), preventive, control value class; for Test G (control value class): 250 ppm spray; for Test G (control value class, downy mildew on vine): 250 ppm, sprayed 2.5 ml/pot before inoculation
Source text: [Test Example G] Downy Mildew on Vine
Seeds of a test plant (grape variety: Neomuscat) were planted followed by cultivating until three to four first leaves appeared. […] After the sprayed dilutions were dried, a zoosporangia suspension (1-2×10^4 zoosporangia/ml) of Plasmopara viticola was inoculated to the plants by spraying.

Alternaia brassicicola = test: Test Example C: Alternaria sooty spot on cabbage; conditions: for Test C control value / Test C (control value class): Alternaria sooty spot on cabbage; for Test C control value (Alternaria sooty spot on cabbage): preventive, control value class; for Test C (control value class, Alternaria sooty spot on cabbage): in vivo
Source text: [Test Example C] Alternaria Sooty Spot on Cabbage
Seeds of a test plant (cabbage variety: Shikidori) were planted followed by cultivating until the cotyledons extended.

Puccinia recondita = test: Test Example E: Brown rust on wheat; conditions: for Test E control value (brown rust on wheat): preventive, control value class; for Test E (control value class, brown rust on wheat): in vivo
Source text: [Test Example E] Brown Rust on Wheat

[2] = Downy mildew on vine, 7-10 days after inoculation
[3] = Gray mold on tomato, control value=100{1-(n/3)}
[4] = Powdery mildew on barley, control value=100{1-(n/3)}
[5] = Downy mildew on vine, 2.5 ml/pot, evaluated 7-10 days after inoculation
[6] = Brown rust on wheat, control value=100{1-(n/3)}
[7] = evaluated 7-10 days after inoculation
[8] = gray mold on tomato, Botrytis cinerea, 250 ppm spray
[9] = powdery mildew on barley, 250 ppm spray
[10] = downy mildew on vine, Plasmopara viticola, 7-10 days after inoculation
[11] = brown rust on wheat, Puccinia recondita, 250 ppm spray

CCn1c(-c2c(F)cccc2F)c(-c2cc(OCOC)ccc2Cl)cc(Cl)c1=O [Compound 127, 3-chloro-5-(2-chloro-5-(methoxymethoxy)phenyl)-6-(2,6-difluorophenyl)-1-ethylpyridine-2(1H)-one]
Test B control value (Botrytis cinerea; Gray mold on tomato): H (H shows more than 50% of control values) | Test D control value ([1]; Powdery mildew on barley): H (H shows more than 50% of control values) | Test G control value (Plasmopara viticola; [2]): H (H shows more than 50% of control values) | Test C control value (Alternaia brassicicola): H (H shows more than 50% of control values) | Test E control value (Puccinia recondita; Brown rust on wheat): H (H shows more than 50% of control values)

CCn1c(-c2c(F)cccc2F)c(-c2ccc(Cl)cc2Cl)ccc1=O [Compound 332]
Test B control value (gray mold on tomato) (Botrytis cinerea; 250 ppm spray): H (H shows more than 50% of control values) | Test D control value (powdery mildew on barley) ([1]; 250 ppm spray): H (H shows more than 50% of control values) | Test G control value (downy mildew on vine) (Plasmopara viticola; 7-10 days after inoculation): H (H shows more than 50% of control values) | Test C control value (Alternaria sooty spot on cabbage) (Alternaia brassicicola; 250 ppm spray): H (H shows more than 50% of control values) | Test E control value (brown rust on wheat) (Puccinia recondita; 250 ppm spray): H (H shows more than 50% of control values)

CCn1c(-c2c(F)cc(OC)cc2F)c(-c2ccccc2)cc(Cl)c1=O [Compound 773]
Test B (control value class) (Botrytis cinerea; [3]): H (H shows more than 50% of control values) | Test D (control value class) [1, 4]: H (H shows more than 50% of control values) | Test G (control value class) (Plasmopara viticola; [5]): H (H shows more than 50% of control values) | Test C (control value class) (Alternaia brassicicola; control value=100{1-(n/3)}): H (H shows more than 50% of control values) | Test E (control value class) (Puccinia recondita; [6]): H (H shows more than 50% of control values)

Cn1c(-c2c(F)cccc2F)c(-c2ccc(F)cc2F)cc(Cl)c1=O [Compound 646]
Test B (control value class, gray mold on tomato) (Botrytis cinerea): H (H shows more than 50% of control values) | Test D (control value class, powdery mildew on barley) [1]: L (L shows 50% or less of control values) | Test G (control value class, downy mildew on vine) (Plasmopara viticola; [7]): L (L shows 50% or less of control values) | Test C (control value class, Alternaria sooty spot on cabbage) (Alternaia brassicicola): H (H shows more than 50% of control values) | Test E (control value class, brown rust on wheat) (Puccinia recondita): H (H shows more than 50% of control values)

COc1cc(OC)cc(C2=C(c3c(F)cc(Br)cc3F)N(C)C(=O)CC2)c1 [Compound 187]
Test B control value (gray mold on tomato) (Botrytis cinerea; 250 ppm spray): H (H shows more than 50% of control values) | Test D control value (powdery mildew on barley) ([1]; 250 ppm spray): L (L shows 50% or less of control values) | Test G control value (downy mildew on vine) (Plasmopara viticola; 7-10 days after inoculation): H (H shows more than 50% of control values) | Test C control value (Alternaria sooty spot on cabbage) (Alternaia brassicicola; 250 ppm spray): H (H shows more than 50% of control values) | Test E control value (brown rust on wheat) (Puccinia recondita; 250 ppm spray): H (H shows more than 50% of control values)

CCOc1cc(F)c(-c2c(-c3ccccc3Cl)ccc(=O)n2CC)c(F)c1 [Compound 685]
Test B (control value class, gray mold on tomato) (Botrytis cinerea): H (H shows more than 50% of control values) | Test D (control value class, powdery mildew on barley) [1]: H (H shows more than 50% of control values) | Test G (control value class, downy mildew on vine) (Plasmopara viticola; [7]): H (H shows more than 50% of control values) | Test C (control value class, Alternaria sooty spot on cabbage) (Alternaia brassicicola): H (H shows more than 50% of control values) | Test E (control value class, brown rust on wheat) (Puccinia recondita): H (H shows more than 50% of control values)

CCn1c(-c2c(F)cc(OC)cc2F)c(-c2ccccc2Cl)cc(I)c1=O [Compound 822]
Test B (control value class) (Botrytis cinerea; [3]): H (H shows more than 50% of control values) | Test D (control value class) [1, 4]: L (L shows 50% or less of control values) | Test G (control value class) (Plasmopara viticola; [5]): L (L shows 50% or less of control values) | Test C (control value class) (Alternaia brassicicola; control value=100{1-(n/3)}): H (H shows more than 50% of control values) | Test E (control value class) (Puccinia recondita; [6]): H (H shows more than 50% of control values)

CCOc1ccc(Cl)c(-c2ccc(=O)n(C)c2-c2c(F)cccc2F)c1 [Compound 237]
Test B control value (gray mold on tomato) (Botrytis cinerea; 250 ppm spray): H (H shows more than 50% of control values) | Test D control value (powdery mildew on barley) ([1]; 250 ppm spray): H (H shows more than 50% of control values) | Test G control value (downy mildew on vine) (Plasmopara viticola; 7-10 days after inoculation): L (L shows 50% or less of control values) | Test C control value (Alternaria sooty spot on cabbage) (Alternaia brassicicola; 250 ppm spray): L (L shows 50% or less of control values) | Test E control value (brown rust on wheat) (Puccinia recondita; 250 ppm spray): H (H shows more than 50% of control values)

COc1cc(F)c(-c2c(-c3cccc(F)c3F)cc(C)c(=O)n2C)c(F)c1 [Compound 565]
Test B (control value class, gray mold on tomato) (Botrytis cinerea): H (H shows more than 50% of control values) | Test D (control value class, powdery mildew on barley) [1]: H (H shows more than 50% of control values) | Test G (control value class, downy mildew on vine) (Plasmopara viticola; [7]): H (H shows more than 50% of control values) | Test C (control value class, Alternaria sooty spot on cabbage) (Alternaia brassicicola): H (H shows more than 50% of control values) | Test E (control value class, brown rust on wheat) (Puccinia recondita): H (H shows more than 50% of control values)

CCn1c(-c2c(F)cc(OC)cc2F)c(-c2cc(F)ccc2Cl)cc(Br)c1=O [Compound 476, 3-bromo-5-(2-chloro-5-fluorophenyl)-6-(2,6-difluoro-4-methoxyphenyl)-1-ethylpyridine-2(1H)-one]
Test B (control value class) (Botrytis cinerea; [8]): H (H shows more than 50% of control values) | Test D (control value class) [1, 9]: H (H shows more than 50% of control values) | Test G (control value class) (Plasmopara viticola; [10]): L (L shows 50% or less of control values) | Test C (control value class) (Alternaia brassicicola; 250 ppm spray): H (H shows more than 50% of control values) | Test E (control value class) (Puccinia recondita; [11]): H (H shows more than 50% of control values)

CCn1c(-c2c(F)cccc2F)c(-c2ccccc2C(F)(F)F)cc(Br)c1=O [Compound 148]
Test B control value (Botrytis cinerea; Gray mold on tomato): L (L shows 50% or less of control values) | Test D control value ([1]; Powdery mildew on barley): L (L shows 50% or less of control values) | Test G control value (Plasmopara viticola; [2]): L (L shows 50% or less of control values) | Test C control value (Alternaia brassicicola): L (L shows 50% or less of control values) | Test E control value (Puccinia recondita; Brown rust on wheat): L (L shows 50% or less of control values)

CCn1c(-c2c(F)cc(OC)cc2F)c(-c2ccccc2)cc(Br)c1=O [Compound 775]
Test B (control value class) (Botrytis cinerea; [3]): H (H shows more than 50% of control values) | Test D (control value class) [1, 4]: L (L shows 50% or less of control values) | Test G (control value class) (Plasmopara viticola; [5]): L (L shows 50% or less of control values) | Test C (control value class) (Alternaia brassicicola; control value=100{1-(n/3)}): H (H shows more than 50% of control values) | Test E (control value class) (Puccinia recondita; [6]): H (H shows more than 50% of control values)

CCOc1cc(F)c(-c2c(-c3cccc(OC)c3Cl)ccc(=O)n2C)c(F)c1 [Compound 664]
Test B (control value class, gray mold on tomato) (Botrytis cinerea): H (H shows more than 50% of control values) | Test D (control value class, powdery mildew on barley) [1]: H (H shows more than 50% of control values) | Test G (control value class, downy mildew on vine) (Plasmopara viticola; [7]): H (H shows more than 50% of control values) | Test C (control value class, Alternaria sooty spot on cabbage) (Alternaia brassicicola): H (H shows more than 50% of control values) | Test E (control value class, brown rust on wheat) (Puccinia recondita): H (H shows more than 50% of control values)

CCn1c(-c2c(F)cccc2F)c(-c2cc(OC)cc(OC)c2Cl)ccc1=O [Compound 32]
Test B control value (Botrytis cinerea; Gray mold on tomato): H (H shows more than 50% of control values) | Test D control value ([1]; Powdery mildew on barley): H (H shows more than 50% of control values) | Test G control value (Plasmopara viticola; [2]): H (H shows more than 50% of control values) | Test C control value (Alternaia brassicicola): H (H shows more than 50% of control values) | Test E control value (Puccinia recondita; Brown rust on wheat): H (H shows more than 50% of control values)

CCn1c(-c2c(F)cc(F)cc2F)c(-c2ccc(F)cc2Cl)cc(Br)c1=O [Compound 578]
Test B (control value class, gray mold on tomato) (Botrytis cinerea): H (H shows more than 50% of control values) | Test D (control value class, powdery mildew on barley) [1]: H (H shows more than 50% of control values) | Test G (control value class, downy mildew on vine) (Plasmopara viticola; [7]): L (L shows 50% or less of control values) | Test C (control value class, Alternaria sooty spot on cabbage) (Alternaia brassicicola): H (H shows more than 50% of control values) | Test E (control value class, brown rust on wheat) (Puccinia recondita): H (H shows more than 50% of control values)

Cn1c(-c2c(F)cccc2F)c(-c2cc(F)cc(F)c2F)cc(Br)c1=O [Compound 443]
Test B (control value class) (Botrytis cinerea; [8]): H (H shows more than 50% of control values) | Test D (control value class) [1, 9]: L (L shows 50% or less of control values) | Test G (control value class) (Plasmopara viticola; [10]): L (L shows 50% or less of control values) | Test C (control value class) (Alternaia brassicicola; 250 ppm spray): H (H shows more than 50% of control values) | Test E (control value class) (Puccinia recondita; [11]): H (H shows more than 50% of control values)

CCOCOc1ccc(Cl)c(-c2ccc(=O)n(CC)c2-c2c(F)cccc2F)c1 [Compound 325]
Test B control value (gray mold on tomato) (Botrytis cinerea; 250 ppm spray): H (H shows more than 50% of control values) | Test D control value (powdery mildew on barley) ([1]; 250 ppm spray): H (H shows more than 50% of control values) | Test G control value (downy mildew on vine) (Plasmopara viticola; 7-10 days after inoculation): L (L shows 50% or less of control values) | Test C control value (Alternaria sooty spot on cabbage) (Alternaia brassicicola; 250 ppm spray): H (H shows more than 50% of control values) | Test E control value (brown rust on wheat) (Puccinia recondita; 250 ppm spray): H (H shows more than 50% of control values)

CCn1c(-c2c(F)cccc2F)c(-c2ccc(Cl)cc2)ccc1=O [Compound 265]
Test B control value (gray mold on tomato) (Botrytis cinerea; 250 ppm spray): H (H shows more than 50% of control values) | Test D control value (powdery mildew on barley) ([1]; 250 ppm spray): H (H shows more than 50% of control values) | Test G control value (downy mildew on vine) (Plasmopara viticola; 7-10 days after inoculation): H (H shows more than 50% of control values) | Test C control value (Alternaria sooty spot on cabbage) (Alternaia brassicicola; 250 ppm spray): H (H shows more than 50% of control values) | Test E control value (brown rust on wheat) (Puccinia recondita; 250 ppm spray): H (H shows more than 50% of control values)
